Experimental data reported in PubChem BioAssay AID485290 (National Center for Advancing Translational Sciences (NCATS), 2010).
In all, about 350,000 compounds went through this assay and about 990 (0.28%) were called active. Inconclusive means that the source gave no clear call. Such entries were picked first, then a sample of the others. The call rests on the fitted dose curve; in most records, active means well fitted inhibition curve with a large enough effect; inconclusive means small, poorly fitted or top-dose-only effect; inactive means no such curve, though single readings can be large or run the other way. Potencies of inconclusive entries are doubtful fits and often do not repeat. Some structures have more than one record in an assay (separate samples or runs), and their calls can disagree.

Each compound was assayed against Tyrosyl-DNA phosphodiesterase 1 (Homo sapiens) (UniProt Q9NUW8) (assay: qHTS Assay for Inhibitors of Tyrosyl-DNA Phosphodiesterase (TDP1)). Settings: recombinant TDP1, AlphaScreen DNA substrate cleavage; activity change, negative = inhibition: at 130 µM (top of the series) unless noted.
UniProt Q9NUW8, sequence (Q9NUW8 whole entry, looked up): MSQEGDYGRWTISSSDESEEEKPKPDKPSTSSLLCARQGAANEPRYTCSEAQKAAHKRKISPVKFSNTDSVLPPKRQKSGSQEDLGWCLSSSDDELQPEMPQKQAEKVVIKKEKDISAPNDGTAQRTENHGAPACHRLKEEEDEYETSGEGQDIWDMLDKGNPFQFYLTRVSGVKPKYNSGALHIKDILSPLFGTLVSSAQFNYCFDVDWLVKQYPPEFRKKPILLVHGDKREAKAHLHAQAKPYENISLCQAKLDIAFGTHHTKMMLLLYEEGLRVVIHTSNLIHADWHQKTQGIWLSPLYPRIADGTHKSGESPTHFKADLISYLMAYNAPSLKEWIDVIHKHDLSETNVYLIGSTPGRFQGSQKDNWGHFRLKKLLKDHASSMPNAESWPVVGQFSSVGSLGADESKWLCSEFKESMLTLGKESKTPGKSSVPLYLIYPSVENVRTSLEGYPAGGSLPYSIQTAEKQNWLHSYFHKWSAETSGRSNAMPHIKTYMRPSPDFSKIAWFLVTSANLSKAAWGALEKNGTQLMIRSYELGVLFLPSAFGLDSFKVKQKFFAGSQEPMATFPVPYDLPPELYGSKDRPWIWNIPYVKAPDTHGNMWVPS
In short: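 E. coli-derived human Tdp1, 1 nM final. Cpd preinc 15 min RT; substrate 15 nM final, 5 min RT; AS bead mix 10 ug/ml final, 10 min RT. Signal loss = tyrosine-FITC cleavage. No-enzyme wells = max signal.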
Further: nearly all actives have a fitted effect of over 40% in size.
On the % scale 0 is the no-effect control and ±100 the full control effect; potency means the concentration at half of the fitted maximal effect; tags describe the fitted curve by direction and shape.

Potency, active:
N#CC(C#N)=Cc1cccn1-c1ccc(C(=O)O)cc1 3.16 µM
COc1ccccc1CCNC(=O)Cn1c(=O)oc2ccccc21 17.8 µM
O=C(COC(=O)/C=C/c1ccco1)NC1CCCCC1 50.1 µM
Cc1cc(=O)oc2cc(OCC(=O)N/N=C/c3ccccc3[N+](=O)[O-])ccc12 56.2 µM
Fc1ccc(N2N=C(c3cccs3)CC2c2ccccc2)cc1 (configuration not stated) 12.6 µM
O=C1CCCN2N=C(SCC(=O)Nc3nccs3)SC2=N1 44.7 µM
COc1ccc2[nH]c(C(=O)O)c(CCN3C(=O)c4cccc([N+](=O)[O-])c4C3=O)c2c1 44.7 µM
O=c1nc(N/N=C/c2ccco2)cn[nH]1 31.6 µM
Cn1c(/C=C/c2ccccc2[N+](=O)[O-])nc2ccccc2c1=O 5.01 µM
CCC1=NN2C(=N)/C(=C\c3ccc(OCc4cc(=O)n5nc(CC)sc5n4)c(OC)c3)C(=O)N=C2S1 39.8 µM
Cc1c(C(=O)O)c(O)cc2c1C(=O)c1c(O)c([C@H]3O[C@H](CO)[C@@H](O)[C@H](O)[C@H]3O)c(O)c(O)c1C2=O 0.708 µM
COc1ccc2cc3cc(C(=O)NCc4cccs4)oc3nc2c1 31.6 µM
CCn1cc(C(=O)O)c(=O)c2cc(F)c(N3CCN(C(=S)NC(=O)c4ccc(OC)cc4)CC3)cc21 79.4 µM

Potency, inconclusive:
COc1cc(/C=N/Nc2nnc3c(n2)[nH]c2ccccc23)ccc1O 39.8 µM [inhibitor, single point]
Cc1ccccc1-n1c(-c2cccnc2)n[nH]c1=S 0.708 µM [inhibitor, full curve]
Nc1cc(Cl)nnc1Cl 12.6 µM [inhibitor, single point]
CCOC(=O)c1c(NC(=O)c2ccc(Br)o2)sc(C)c1CC 15.8 µM [inhibitor, partial curve]
Cc1cnc(C(=O)NCC(=O)Nc2ccccc2Br)cn1 28.2 µM [inhibitor, partial curve]
O=C(CSc1nnc2ccccn12)c1ccccc1 35.5 µM [inhibitor, partial curve]
Cc1ccc(C)c(-n2c(-c3cccnc3)n[nH]c2=S)c1 0.158 µM [inhibitor, full curve, poor fit]
O=c1[nH]c2ccccc2nc1/C=C/c1ccc(O)cc1 100 µM [inhibitor, single point]
Cc1ccc(S(=O)(=O)NNC(=O)c2ccccc2O)cc1 17.8 µM [inhibitor, full curve]
COc1ccc(NC(C)=O)cc1S(=O)(=O)N1CCN(Cc2cccs2)CC1 25.1 µM [inhibitor, single point]
CCCCC(CC)C/C=C1\CC(C(=O)OCC)Oc2ccccc21 (configuration not stated) (tested in a mixture with another compound) 28.2 µM [inhibitor, partial curve]
CC(=O)c1ccc(S(=O)(=O)Nc2ccc(-c3ccc4nncn4n3)cc2)cc1 3.98 µM [inhibitor, partial curve, poor fit]
O=C(Nc1ccccc1N1CCCCC1)c1ccc(F)cc1 14.1 µM [inhibitor, partial curve]
CCCCCCCCC#CCC#CCC#CCCCC(=O)O 39.8 µM [inhibitor, single point]
Cc1cc(C(C)(C)C)cc(C)c1COC(=O)c1cccnc1 70.8 µM [inhibitor, single point]
CCOc1cc(/C=C2\C(=O)NN(c3ccccc3)C2=O)cc([N+](=O)[O-])c1O 25.1 µM [inhibitor, full curve]
Cc1ccc2nc(CSc3nnc(Nc4ccccc4F)s3)cc(=O)n2c1 25.1 µM [inhibitor, full curve]
COc1cc(/C=C2\C(=O)NN(c3ccccc3)C2=O)cc([N+](=O)[O-])c1O 14.1 µM [inhibitor, full curve, poor fit]
Cc1cccc(Oc2ccccc2NS(=O)(=O)c2ccc(CCC(=O)O)cc2)c1 20 µM [inhibitor, full curve]
CC(=O)Nc1ccc(NC(=O)CSc2nc(N)c(NC(=O)c3ccccc3F)c(=O)[nH]2)cc1 50.1 µM [inhibitor, partial curve, poor fit]
COc1cc(CNc2ccc(C)c(C)c2)cc(OC)c1OC 7.08 µM [inhibitor, partial curve]
COc1cc(OC)c(NC(=O)CSc2nc3ccncc3[nH]2)cc1Cl 50.1 µM [inhibitor, single point]
COc1cccc(/C=N/NC(=O)c2cccc(N3CCCC3=O)c2)c1 89.1 µM [inhibitor, single point]
Cc1ccc(Oc2ncccc2/C=N/OCc2ccc(Cl)c(Cl)c2)cc1 14.1 µM [inhibitor, partial curve]
O=C(Nc1cc(=O)[nH]c2ncnn12)c1ccccc1 89.1 µM [inhibitor, single point]
Cc1ccc(C2=NN(C(=O)CCC(=O)O)C(c3cn(-c4ccccc4)nc3-c3ccc(C)cc3)C2)cc1 (configuration not stated) 31.6 µM [inhibitor, single point]
CC1(C)C(=O)Nc2ccccc2N1C(=O)COC(=O)Cc1c(F)cccc1Cl 56.2 µM [inhibitor, partial curve]
Clc1ccc(OCCSc2ncccn2)c(Br)c1 20 µM [inhibitor, single point]
CCOc1ccc(CNC(=O)C2CCN(c3nnc(C)c4c(C)n(-c5ccc(C)cc5)nc34)CC2)cc1 50.1 µM [inhibitor, partial curve]
O=c1c2c([nH]c3ccccc13)C(=C1CCCC1)CC2 15.8 µM [inhibitor, full curve, poor fit]
CC(OC(=O)c1ccc(-n2cnnn2)cc1)C(=O)Nc1ccc(F)c(F)c1F (configuration not stated) 56.2 µM [inhibitor, partial curve]
COc1cc(/C=N/Nc2ccc(C(=O)O)cc2)ccc1O 3.98 µM [inhibitor, full curve]
O=C1C(=Cc2ccc(Br)o2)C(=O)c2ccccc21 2.51 µM [inhibitor, full curve, poor fit]
Clc1ccc(-c2cc(CSc3cccc(Cl)c3)on2)cc1 22.4 µM [inhibitor, single point]
Oc1cccc(C=NCc2ccccc2)c1O 2.51 µM [inhibitor, full curve, poor fit]
O=C(O)c1ccc(/C=N/Nc2ncc(C(F)(F)F)cc2Cl)cc1 89.1 µM [inhibitor, single point]
COc1ccc(OCC(=O)O/N=C(\N)Cc2ccc(Cl)cc2Cl)cc1 22.4 µM [inhibitor, partial curve]
CCOc1ccc(C(=O)/C=C/Nc2ccc(S(=O)(=O)Nc3cc(C)nc(C)n3)cc2)cc1 44.7 µM [inhibitor, partial curve]
CN(c1ccc(OCC(=O)OCC(=O)Nc2ccc(OC(F)F)cc2)cc1)S(=O)(=O)c1cccs1 100 µM [inhibitor, partial curve, poor fit]
COc1ccc(OC)c(C2=C/C(=C/c3ccccn3)C(=O)O2)c1 2.82 µM [inhibitor, full curve]
C[C@@H](O)c1nc2ccccc2n1N 100 µM [inhibitor, single point]

Activity change, negative = inhibition, inactive:
COc1ccc(CCNC(=O)CNC(=O)c2nn(-c3ccc(OC)c(OC)c3)c(=O)c3ccccc23)cc1OC 7.49%
Cc1ccc(-n2c(=O)c3c(cnn3C)n(Cc3ccccc3F)c2=O)cc1 8.82%
C[N+]1(CCOS(=O)C23CC4CC(CC(C4)C2)C3)CCOCC1 (configuration not stated) 5.05%
COc1ccc(S(=O)(=O)Nc2cccc3c2O[C@H](CN(C)Cc2ccc(Oc4ccccc4)cc2)[C@@H](C)CN([C@H](C)CO)C3=O)cc1 2.09%
CCOC(=O)c1cc(C#N)c(SCC(N)=O)[nH]c1=O -9.94%
COc1cc(NC(=O)COC(=O)/C=C/c2ccc(O)c(OC)c2)cc(OC)c1 2.38%
COc1ccc(Oc2ncnc3c2oc2ccccc23)cc1 4.41%
Cc1ccc(CN(Cc2ccco2)C(=O)c2ccco2)cc1 7.05%
CCNC(=S)N/N=C(\C)c1cccc(OC)c1 8.09%
COC(=O)c1ccc(OCCOc2ccccc2)cc1 0%
COC(=O)c1ccccc1NC(=O)N1c2ccccc2Sc2ccccc21 1.14%
CC1CCCC(NC(=O)c2cccs2)C1C (configuration not stated) 1.1%
CCCCCCN1C(=O)CC(NC(=O)OCC2c3ccccc3-c3ccccc32)C/C=C\C1C(C)C (configuration not stated) -0.889% [at 56.1 µM]
C[C@H](O)CN(C)C -1.23%
CC1CCCCN1C(=O)CSc1nnc(-c2ccccc2Cl)o1 (configuration not stated) -4.25% [at 12.3 µM]
CCOC(=O)CNC(=O)c1ccc2[nH]c3ccccc3c2c1 8.23%
CCN(CC)S(=O)(=O)c1ccc2oc(C(=O)NCc3ccccc3OC)c(C)c2c1 2.94%
CCCNC(=O)CCCCn1c(=S)[nH]c2c([nH]c3ccc(OC)cc32)c1=O 5.88%
